Measured values taken from the supplement of paper PMC10338343.
± gives the standard deviation. The full ranking holds about 6,600 sequences; the median of “pre-steady-state target cleavage rate” is about 0.07, and the highest 2% start at about 0.72. Only a part is listed here, and it is no random draw.

Test system: MIWI (PIWIL1) piRISC loaded with Kctd7 piRNA (30 nt)
Experiment: pre-steady-state target cleavage rate (min^-1); MIWI and MILI are mouse PIWI proteins and EfPiwi is from a freshwater sponge; tags in brackets are library labels; higher = faster piRNA-guided slicing of the target
Conditions: guide: Kctd7 piRNA 5'p-UGUUAAUCUCUCAGAGAAGGUGACAGUGAU; auxiliary factor: 500 nM mouse GTSF1
Outline: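 Sequencing of uncleaved targets, normalised to depth and to weakly complementary targets, was the readout of this Cleave-'n-Seq assay. A transcribed, DNA-blocked target RNA library (0.1 nM) was mixed with 1 nM active affinity-purified piRISC carrying one synthetic guide, with or without 500 nM GTSF1 partner protein, in HEPES–potassium acetate buffer at 33 °C for 0–8 or 0–960 min. Three trials were pooled, k3 was capped at 0.0001 min^-1, and a burst-and-steady-state fit gave the pre-steady-state cleavage rate.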

Sequence | pre-steady-state target cleavage rate
UACACUGUCACCUUCUCAGAGAGUUUAACA | 0.269 ± 0.061
UAGUGACAGACCCUUCUCUGAGAGAUUAACA | 0.0893 ± 0.016
UUCACUCUCACCUUCUCUGAGUGAUUAACA | 0.0282 ± 0.0042
UAGUGAGUCACCUUCUCUGAGAGAUUAACA [g2:g24:cont:t1A] | 0.654 ± 0.038
UAGACUGUCACCUUCUCUGAGAGAUUAACCA | 0.648 ± 0.054
UUCACUGUCACCUUCUCUGACAGAUUAACA | 0.372 ± 0.032
UACACAGUCACCUACUCUGAGAGAUUAACA | 0.697 ± 0.032
UAGUGACUCUCCUUCUCUGAGUGAUUAACA | 0.00757 ± 0.0019
UUCACUGUCACCUUCUCUGUCAGAUUAAGA | 0.00879 ± 0.0047
UAGAGUGUCACCUUCUCUGAGAGUUUAACA | 0.464 ± 0.069
UUCACUGUCACCUUGUCAGAGAGAUUAACA | 0.158 ± 0.02
AUCACUGUCACCUUCUCUGAGUGAUUAUCA | 0.0511 ± 0.015
UAGUGUCUCACCUUCUCUGAGAGAUUUACA | 0.279 ± 0.04
UAGUGACAGAUCCUUCUCUGAGAGAUUAACA | 0.248 ± 0.021
UAGUGACUGACCUUCUCUGAGAGAUUAACA | 0.363 ± 0.037
UAGACUGUGACCUUGUCUGAGAGAUUAACA | 0.13 ± 0.022
AUCACAGUCACCUUCUCUGAGAGUUUAACA | 0.505 ± 0.087
UAGUCUGUCUCCUUCACUGAGAGAUUAACA | 0.274 ± 0.019
UUCACUGUCACCUUCUCUGACAGUUUAACA | 0.0439 ± 0.0095
UAGUGAGUCACCUUCUCUGUGAGAUUAUGA | 0.0377 ± 0.011
UAGUGACACAGCUUCUCUGAGAGAUUAUCA | 0.0896 ± 0.016
UAGUGUGUCACCUUCUCUGAGAGAUCUAACA | 0.435 ± 0.085
AUCACUGUCACCUUCUCUGUGAGAUUAAGA | 0.0958 ± 0.016
AUCACAGUCACCUUCUCUGAGAGAUUUUGA | 0.142 ± 0.043

Sequence | pre-steady-state target cleavage rate
UAGUGACAGUGCUUCUCUGAGAGAGUUAACA | 0.00888 ± 0.0017
UUCACUGUCACCUUCAUCUGAGAGAUUAACA | 0.255 ± 0.048
AUCUCUGUCUCCUUCUCUGAGAGAUUAACA | 0.637 ± 0.042
UACACUGACACCUUCUCUGAGAGAUUAUGA | 0.0627 ± 0.027
UUCACUGUCACCUUCUCUGAGAGAUUGACA | 0.267 ± 0.043
UACACAGUCACCUUCUCUGAGAGAUUAAGA | 0.112 ± 0.024
UACACUGUCACGUUCUCAGAGAGAUUAACA | 0.144 ± 0.011
UAGUGACAGUGGAACUCUGAGAGUAUAACA | < 0.0001
UUCACUGUCACCUUCACUGAGAGAUUAACA | 0.552 ± 0.031
AUCUGUGUCACCUUCUCUGAGAGAUUAUGA | 0.0903 ± 0.016
UAGUGUGUCACCUUCUCCUGAGAGAUUAACA | 0.124 ± 0.042
UUCACUGUCACCUUCUCUCAGAGAUUAACA | 0.113 ± 0.01
UAGUGUGUCACCUUCUGUGAGAGAUUAUCA | 0.0267 ± 0.0062
UAGUGAGUCACCUUUCUCUGAGAGAUUAACA | 0.382 ± 0.034
UUCACUGUCACCAUCUCUGAGAGAUAAACA | 0.308 ± 0.037
UACACUGUCAGCUUCUCUGAGUGAUUAACA | 0.0155 ± 0.0024
UAGUGUCUCACCUACUCUGAGAGAUUAACA | 0.434 ± 0.031
UAGUGACUCACCUUCUCUGAGAGAUAUAGA | 0.00979 ± 0.0032
AUCACUGUCACCUUCUGAGAGAGAUUAUGA | 0.00906 ± 0.0048
UAGACGUCACCUUCUCUGAGAGAUUAACA | 0.677 ± 0.035
UAGUGACACACCUUCUCUGAGUCUUUAACA | < 0.0001
UUCACUGUGAGCUUCUCUGAGAGAUUAACA | 0.515 ± 0.024
UUCACUGUCACCUUCUCUGUGACAUUAACA | 0.0436 ± 0.0063
UACACUGUCACCUACUGUGAGAGAUUAACA | 0.332 ± 0.024

Sequence | pre-steady-state target cleavage rate
UAGUCUGUCACCUUCUCUGAGUGAUUAAGA | 0.00589 ± 0.0033
UACACUGUCACCUUCUCUGAGACAUUUACA | 0.0625 ± 0.021
AUCACUGACACCUUCUCUGAGAGAUAUUGA | 0.0703 ± 0.02
UAGUCUGUCACCUUCUCUGGAGAUUAACA | 0.22 ± 0.019
UAGUGUGUCACGUUCUCUGAGACAUUAACA | 0.0499 ± 0.0086
UAGCCUGUCACCUUCUCUGAGAGAUUAACA | 0.752 ± 0.056
UAGUGACACACCUUCUCUCAGAGAUUAACA | 0.0292 ± 0.0066
UACACUGUGACCUUCUCUGAGAGAUUAUCA | 0.135 ± 0.022
UAGUCUGUCACCUGCUCUGAGAGAUUAACA | 0.585 ± 0.03
UAGUGACACACCUUCUCUGAGAGAUGUAACA | 0.23 ± 0.032
UAGUGACUCACCUUCUCUGAGAGUUUAAGA | 0.0761 ± 0.016
UAGACUGUCACCUUCACUGAGAGAUAAACA | 0.266 ± 0.038
UAGUGACUCACCUUCUCCGAGAGAUUAACA | 0.351 ± 0.07
UAGUGACUCUCCUACUCUGAGAGAUUAACA | 0.0149 ± 0.0023
UAGACUGUCACCUUCUCACUGAGAUUAACA | 0.00417 ± 0.0022
UUCACUGACAGCUUCUCUGAGAGAUUAACA | 0.587 ± 0.03
UAGUGACAGACCUUCUCUGAGAGAUAUUCA | 0.00856 ± 0.0053
UUCACUGUCGACCUUCUCUGAGAGAUUAACA | 0.195 ± 0.023
UAGUGAGUCACCUUGUCUGAGUGAUUAACA | 0.0224 ± 0.004
UAGUGACACUCCUUCUCUGAGAGAUUAAGA | 0.0528 ± 0.011
UUCACUGUCUCCUUCUCUGAGAGAUUUUGA | 0.0532 ± 0.018
AUCACUGUCACCUUCUGUGAGAGAUAAACA | 0.226 ± 0.026
UAGUGACUCACCUUCUCUGAGAGAUAAUGA | 0.0193 ± 0.007
UUCACUGUCACCUUCACUGAGAGAUUAUCA | 0.279 ± 0.044
